From the text: FIG. 9. Relationship between the rate constant (kcat) of TrzN with ametryn and the pH of the reaction buffer.
The active site cavity of TrzN (FIG. 5) is located at the centre of the catalytic domain of each subunit. Three conserved histidines of the amidohydrolase motif, located on strands one (H63, H65) and five (H238), in addition to a glutamine residue from strand two and the putative water/hydroxide nucleophile constitute the metal ligands. The active site Zn^2+ metal ion is coordinated in trigonal bipyramidal geometry, with H63, H65, and H238 comprising the equatorial ligands, and Q142 and the water molecule the axial ligands. […] The nucleophilic water is shown to be additionally hydrogen bonded to H274, which is a conserved residue of the amidohydrolase motif and is in turn hydrogen bonded to D300 to form a H-D catalytic dyad.

B1: TrzN Wildtype: Wild-type TrzN triazine hydrolase, SEQ ID NO:1; codon optimised open reading frame TrzNco, SEQ ID NO:2 (protein, listed as Arthrobacter aurescens)
chain: MILIRGLTRVITFDDQERELEDADILIDGPKIVAVGKDLSDRSVSRTIDGRGMIALPGLINSHQHLYEGAMRAIPQLERVTMASWLEGVLTRSAGWWRDGKFGPDVIREVARAVLLESLLGGITTVADQHLFFPGATADSYIDATIEAATDLGIRFHAARSSMTLGKSEGGFCDDLFVEPVDRVVQHCLGLIDQYHEPEPFGMVRIALGPCGVPYDKPELFEAFAQMAADYDVRLHTHFYEPLDAGMSDHLYGMTPWRFLEKHGWASDRVWLAHAVVPPREEIPEFADAGVAIAHLIAPDLRLGWGLAPIREYLDAGITVGFGTTGSASNDGGNLLGDLRLAALAHRPADPNEPEKWLSARELLRMATRGSAECLGRPDLGVLEEGRAADIACWRLDGVDRVGVHDPAIGLIMTGLSDRASLVVVNGQVLVENERPVLADLERIVANTTALIPKNL
  pKa of the nucleophile: approximately 8
